About 480 (0.16%) of roughly 300,000 compounds were called active. The shares of active, inactive and inconclusive entries below differ from those in the screen.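 How the source made its calls: active means inhibition over 29.93%, a cutoff 3 SD above the screen mean, later confirmed by dose response; inconclusive means inhibition over 29.93% but no dose response follow-up; inactive means inhibition at most 29.93% or unconfirmed.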
Test: inhibitors of PhoP regulon expression, primary screen, Salmonella Typhimurium, GFP reporter (AID 1863);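 further: 0% = low Mg2+ inducing control and 100% = high Mg2+ repressing control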
Conditions: S. Typhimurium PhoP-regulated promoter GFP reporter, 4 h; at 50 µM; hits give high values

Row | SMILES | inhibition
1 | O=[N+]([O-])c1ccc(Oc2cccc3cccnc23)c([N+](=O)[O-])c1 | inconclusive: 32%
2 | O=C(NCCCc1ccccc1)c1ccc(-n2cncn2)c([N+](=O)[O-])c1 | inactive: 2.7%
3 | CCCNC(=O)c1cn(CC)c2cc(N3CCN(C(=O)c4ccco4)CC3)c(F)cc2c1=O | inactive: -3.25%
4 | Oc1[nH]c2ccccc2c1N=NC(=S)N1CCOCC1 | inconclusive: 62.6%
5 | O=C(/C(=C/c1ccc(Cl)cc1)c1nc2ccccc2[nH]1)c1ccccc1 | inconclusive: 16.4%
6 | CC1(C(=O)OCC(=O)c2c[nH]c3ccccc23)CC1(Cl)Cl (stereo not given) | inconclusive: 161%
7 | Cc1cccc2sc(NNC(=O)c3ccc(S(=O)(=O)N4CCc5ccccc5C4)cc3)nc12 | inconclusive: 44.8%
8 | COC(=O)CSc1nc(N)c(C#N)c(CC(C)C)c1C#N | inactive: -5.81%
9 | CCCCn1c(/C=N/Nc2nc3ccccc3[nH]2)nc2ccccc21 | inconclusive: 30.7%
10 | CCCCCCCNC(=O)C1(CC2CC(c3cccc(Br)c3)=NO2)CCN(C(=O)OC(C)(C)C)CC1 (stereo not given) | inactive: -0.33%
11 | CNC(=S)N/N=C/c1cn(Cc2ccc(C)cc2)c2ccccc12 | inconclusive: 32.6%
12 | Cc1cc(C)n2cc(CSc3nc4ccccc4s3)nc2n1 | inconclusive: 30%
13 | Cc1cccc(C)c1NC(=O)CSc1nnc(-c2ccoc2C)n1CCc1ccccc1 | inconclusive: 36.6%
14 | O=C(NC(=S)NNC(=O)c1cc2ccccc2cc1O)c1ccco1 | inactive: -4.81%
15 | COC(=O)c1c(NC(=O)c2ccco2)sc2c1CCN(C(C)C)C2 | inactive: 3.8%
16 | Nc1nc(N)c2cc(Sc3ccc4ccccc4c3)ccc2n1 | inconclusive: 148%
17 | O=[N+]([O-])c1ccc(O)c(/C=N/Nc2nc3ccccc3[nH]2)c1 | inconclusive: 99.8%
18 | C#CCn1c(=NC(=O)c2ccc(S(=O)(=O)N3CCCc4ccccc43)cc2)sc2cc(S(N)(=O)=O)ccc21 | inconclusive: 33.3%
19 | O=[N+]([O-])c1ccc(O)c(/C=N/NC2=NS(=O)(=O)c3ccccc32)c1 | inconclusive: 31.9%
20 | Cc1ccccc1OCC(=O)NC(=S)Nc1ccccc1N1CCN(S(C)(=O)=O)CC1 | inactive: -1.77%
21 | CCCCSc1nc2c(=O)[nH][nH]c(=O)c2n1Cc1ccccc1 | inactive: -7.79%
22 | O=C(N/N=C/C=C/c1ccc([N+](=O)[O-])cc1)c1cccs1 | inactive: -4.65%
23 | Cc1ccc(N2C(=O)CC(NNc3nc4ccccc4s3)C2=O)cc1 (stereo not given) | inactive: 7.17%
24 | Cc1cc(C)n(-c2nc(NCCO)c3c4c(sc3n2)CCCC4)n1 | inactive: 1.98%
25 | Cc1cc(=O)[nH]c(-n2nc(C)cc2C)n1 | inactive: -11.6%
26 | c1ccc(CNc2nc(NCc3ccccc3)c3ccccc3n2)cc1 | inconclusive: 161%
27 | Cc1ccc(C(C)C)c(OCc2nn(CC(=O)c3ccc(Cl)cc3)c3[n+]2CCCCC3)c1 | inconclusive: 84.2%
28 | O=C(Nc1ccc(C2=NCCN2)cc1)c1ccc(C(=O)Nc2ccc(C3=NCCN3)cc2)c(Cl)c1 | inconclusive: 81.1%

Row | SMILES | inhibition
29 | Oc1ccc(C=Nc2ccccc2-c2nc3ccccc3[nH]2)c(O)c1 | inconclusive: 55.5%
30 | Cc1ccc(N2C(=O)Nc3ccccc3C2(O)C(=O)N2CCN(c3ccccn3)CC2)cc1C (stereo not given) | inactive: 1.22%
31 | N#Cc1c2c(c(Nc3ccc(O)cc3)n3c1nc1ccccc13)CCC2 | inconclusive: 38.2%
32 | Cc1ccccc1OCc1n(CC(=O)OC2CC(C)CCC2C(C)C)c2ccccc2[n+]1C (stereo not given) | inactive: 6.3%
33 | COc1ccc(CCNCC(O)Cn2c3ccccc3c3ccccc32)cc1OC (stereo not given) | inactive: -4.43%
34 | COc1cccc(NC(=O)C(Sc2nnc(-c3ccncc3)n2-c2ccc(Cl)cc2)c2ccccc2)c1 (stereo not given) | inconclusive: 43.7%
35 | Cn1ccc(=Nc2ccc(NC(=O)c3ccc(N=c4ccn(C)c5ccc([N+](=O)[O-])cc45)cc3)cc2)cc1 | inconclusive: 83.7%
36 | CCOc1ccc(Nc2nc(NCC3CCCO3)c3ccccc3n2)cc1 (stereo not given) | inconclusive: 49%
37 | CC(NC(=O)CCNC(=O)c1ccccc1Cl)C1CC2CCC1C2 (stereo not given) | inactive: 10.5%
38 | CCN(CC)CCCOc1nc(C)nc2c1oc1ccccc12 | inconclusive: 34.9%
39 | O=S(=O)(Nc1cc(Sc2cccc3cccnc23)c(O)c2ccccc12)c1ccccc1 | inconclusive: 31.1%
40 | C=CCn1cc(/C=N/Nc2nc3ccccc3[nH]2)c2ccccc21 | inconclusive: 40.3%
41 | COc1ccc(/C=N/NS(=O)(=O)c2ccc(C)cc2)cc1OC(=O)c1ccccc1 | inactive: -3.56%
42 | CN(C)c1ccc(/C=N\S(=O)(=O)c2ccccc2)cc1 | inconclusive: 34%
43 | Cc1ccc(C(C)C)c(OCc2nn(CC(=O)c3ccc(OC(F)F)cc3)c3[n+]2CCCCC3)c1 | inconclusive: 35.5%
44 | C#CC[N+](C)(C)CCCCCCCCCCCC | inconclusive: 47.4%
45 | NCC(c1ccccc1)(c1ccccc1)c1ccccc1 | inconclusive: 34.6%
46 | COc1ccc(C=O)cc1OS(=O)(=O)c1ccc(NC(C)=O)cc1 | inconclusive: 32.4%
47 | Cc1ccn(CC(=O)N/N=C/c2cc([N+](=O)[O-])ccc2O)n1 | inconclusive: 99.4%
48 | CC(C)c1ccc(S(=O)(=O)/N=C2/C=C(Sc3ncn[nH]3)C(=O)c3ccccc32)cc1 | inconclusive: 195%
49 | O=C(N/N=C/C1CCCCC1)c1cc(Cl)ccc1O | inconclusive: 54.1%
50 | COc1ccccc1Cn1c(/C=C/c2ccccc2)nc2ccccc21 | inconclusive: 34.8%
51 | CCn1cc(C(=O)O)c(=O)c2cc(F)c(N3CCN(C(=S)NC(=O)c4ccc(Br)cc4)CC3)cc21 | inconclusive: 100%
52 | COc1ccc(NC(=O)COC(=O)CCCc2c[nH]c3ccccc23)cc1 | inactive: -12.1%
53 | O=C1c2ccccc2C(=O)c2[nH]cnc21 | inconclusive: 22.2%
54 | COc1cc(C=O)ccc1OS(=O)(=O)c1ccccc1[N+](=O)[O-] | inconclusive: 37.3%
55 | O=C1C(O)=C(O)C(=O)c2ccccc21 | inactive: 9.48%

From PubChem BioAssay AID1863 (Southern Research Specialized Biocontainment Screening …, 2009)
